# Data reported in PubChem BioAssay AID488969 (Vanderbilt High Throughput Screening Facility, 2010).
# Whole data set: some 110,000 compounds, median “z-score” near -0.1, cut for the highest 2% near 2. This is one part of the list.
# Molecular target: Metabotropic glutamate receptor 8 (Rattus norvegicus) (UniProt P70579)
# Test: rat mGluR8 modulators via GIRK flux, primary screen, cell-based, thallium flux, HTS (AID 488969)
# Conditions: HEK293 rat mGluR8, GIRK (G protein-gated inwardly rectifying potassium channel) thallium flux, FluoZin2; at 10 µM; stronger effect = higher value; submaximal glutamate (EC20) added with thallium
# Chain of UniProt P70579 (P70579 whole entry, looked up): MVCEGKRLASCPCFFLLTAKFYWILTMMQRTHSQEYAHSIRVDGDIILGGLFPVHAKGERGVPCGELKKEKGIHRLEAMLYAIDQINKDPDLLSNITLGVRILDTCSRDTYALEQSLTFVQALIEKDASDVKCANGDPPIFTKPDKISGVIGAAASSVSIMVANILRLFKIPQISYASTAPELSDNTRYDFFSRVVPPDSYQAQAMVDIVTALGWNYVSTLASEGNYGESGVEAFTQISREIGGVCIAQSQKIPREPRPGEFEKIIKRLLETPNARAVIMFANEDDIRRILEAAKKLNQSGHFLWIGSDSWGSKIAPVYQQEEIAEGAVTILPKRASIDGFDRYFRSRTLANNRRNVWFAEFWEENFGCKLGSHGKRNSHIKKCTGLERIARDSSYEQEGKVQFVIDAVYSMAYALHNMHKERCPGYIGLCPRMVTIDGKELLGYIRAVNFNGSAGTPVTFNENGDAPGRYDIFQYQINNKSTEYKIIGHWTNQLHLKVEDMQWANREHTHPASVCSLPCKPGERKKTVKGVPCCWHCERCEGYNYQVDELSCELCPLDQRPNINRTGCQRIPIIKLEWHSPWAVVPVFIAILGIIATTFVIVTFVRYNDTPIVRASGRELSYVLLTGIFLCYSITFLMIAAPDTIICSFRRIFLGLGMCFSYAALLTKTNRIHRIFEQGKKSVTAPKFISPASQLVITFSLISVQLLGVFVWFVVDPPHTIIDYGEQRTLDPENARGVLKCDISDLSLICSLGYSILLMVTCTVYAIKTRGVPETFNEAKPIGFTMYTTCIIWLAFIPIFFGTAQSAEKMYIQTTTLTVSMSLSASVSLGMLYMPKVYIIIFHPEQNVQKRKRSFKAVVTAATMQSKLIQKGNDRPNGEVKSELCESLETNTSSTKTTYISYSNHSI
row,Structure (SMILES),z-score
1,O=C(CCNc1n[nH]c(=O)[nH]c1=O)N1CCCCC1,1.27
2,CCNc1nc(OCCNC(C)=O)nc(N(C)C)n1,0.738
3,C=CCSc1nc2sc3c(c2c(=O)n1CC=C)CCc1ccccc1-3,-0.139
4,COc1ccc(COCC(O)CN2CC(C)OC(C)C2)cc1OC (stereo not given),0.0549
5,COc1cccc(N2CCN(c3ccc(S(=O)(=O)N4CCCC4)cc3)CC2)c1,0.351
6,C#CCn1c(=NC(=O)c2ccc(S(=O)(=O)N3CCc4ccccc4C3)cc2)sc2cc(S(N)(=O)=O)ccc21,-0.472
7,COc1cc(/C=N/N=C2/NC(=O)C(c3ccccc3)S2)ccc1O (stereo not given),0.0338
8,O=C(/C=C/Nc1ccc(Cc2ccc(N/C=C/C(=O)C(F)(F)F)cc2)cc1)C(F)(F)F,-0.153
9,C=CCOC(=O)C1C(=O)CC(C)(O)C(C(=O)OCC=C)C1c1ccc(OC)cc1 (stereo not given),1.26
10,Cc1ccc(C(=O)NCCN(C)C)cc1C,-0.262
11,Cc1cc(=O)n2c3c(cccc13)CCC2,-0.988
12,COc1ccc(NC(=O)CSc2[nH]c(=O)cc(C)c2C#N)cc1OC,-1.12
13,O=C(N/N=C/c1c(O)n(-c2ccc(Cl)cn2)c(=O)c2ccccc12)c1ccncc1,-0.217
14,CCC(=O)Oc1ccc2c(=O)c(-c3ccc4ccccc4n3)c(CC)oc2c1C,-0.165
15,Cc1ccc(OC(=O)c2cc(=O)c3ccccc3o2)cc1,-0.622
16,O=C(Nc1cccnc1)c1cc(-c2cccnc2)nc2ccc(Br)cc12,0.00258
17,Cc1cc(C)c(NC(=O)C2CCCN2CCC(C)C)c(C)c1 (stereo not given),-0.354
18,CC(C)(C)OC(=O)N1CC(O)CC1C(=O)OCC(=O)c1ccccc1 (stereo not given),0.509
19,Cc1ccc(C2=N/C(=C\N3CCCCC3)C(=O)O2)cc1,-0.0482
20,CCC(c1nnnn1C(C)(C)C)N(Cc1ccco1)Cc1cc2cccc(C)c2[nH]c1=O (stereo not given),0.737
21,Cc1ccc(S(=O)(=O)N2CCN(C(=O)CSc3ncc(C(F)(F)F)cc3Cl)CC2)cc1,-0.176
22,CCOC(=O)c1c(C)oc2ccc(NS(=O)(=O)c3ccc4c5c(cccc35)C(=O)N4)cc12,0.244
23,CCc1cc2c(=O)n(Cc3ccco3)c(SCc3c(C)noc3C)nc2s1,-0.0054
24,CCCS(=O)(=O)N1CCCC(C(=O)NCCN(C)Cc2ccccc2)C1 (stereo not given),0.157

row,Structure (SMILES),z-score
1,O=C(CSCc1ccccc1Cl)NN=C1CCCCCC1,-0.419
2,COc1ccc2c(c1)-c1nc(/N=C/c3c(O)ccc4ccccc34)sc1CC2,-0.109
3,COc1cccc(-c2nc(Oc3cc(C)cc(C)c3)c3ccccc3n2)c1O,0.123
4,COc1cc2c(cc1NC(=O)CSc1nnc(Cc3cccs3)n1Cc1ccco1)oc1ccccc12,0.111
5,O=C(Cc1csc(-c2ccccc2)n1)Nc1ccc(C(F)(F)F)cc1,-0.124
6,O=C(CSc1nc(-c2ccco2)cc(C(F)(F)F)n1)N1CCN(c2cccc(Cl)c2)CC1,-0.266
7,CCOC(=O)N1CCN(C(=O)c2cnn3ccccc23)CC1,1.04
8,CCOC(=O)N1CCN(C(=O)CSCC(=O)Nc2nc(-c3ccc(-c4ccccc4)cc3)cs2)CC1,0.857
9,O=C(COc1ccccc1)OCc1csc(Nc2ccccc2)n1,-0.693
10,O=C(O)c1cc(-c2ccc(/C=N/Nc3ccc(Cl)cc3)o2)ccc1Cl,-0.411
11,CCOC(=O)C1=NN(C(C)=O)C2(CC(=O)N(c3ccc(C)c(C)c3)C2=O)C1 (stereo not given),-0.283
12,O=C(CCCC(=O)N(CC(=O)NC1CCCC1)C1CCCC1)Nc1ccccn1,-0.645
13,CN(C(=O)COc1cc(=O)n(C)c2ccccc12)c1cccc(Cl)c1,0.0211
14,COC(=O)NC1(C(F)(F)F)NC(=O)N(C2CCCCC2)C1=O (stereo not given),0.322
15,Cc1nc(NCc2ccco2)[nH]c(=O)c1CCC(C)C,-1.06
16,CCC(CO)Nc1ncnc2c1cnn2-c1ccc(Cl)cc1 (stereo not given),-0.11
17,c1ccc2c(c1)CCN(CCCNc1nc3ccccc3n3cnnc13)C2,-0.0711
18,CCc1nc(NCC2CCCN2CC)c2nnn(Cc3ccccc3F)c2n1 (stereo not given),-0.244
19,CCSc1nc(-c2ccc(OC)cc2)cc(-c2ccccc2)c1C#N,-0.152
20,Cn1c(CN2CCN(c3cccc(Cl)c3)CC2)nc2ccccc21,0.249
21,C=CCn1c(SCCC)nc(O)cc1=O,-0.404
22,Cc1cccc(C2CC(c3ccc(Cl)cc3)Nc3nc(N)nn32)c1 (stereo not given),1.02
23,O=C(CCCn1c(=O)[nH]c2cc(Cl)ccc2c1=O)NCCCN1CCCC1,-0.393
24,O=[N+]([O-])c1ccc(N2CCN(c3ccc(Cl)nn3)CC2)cc1NC1CC1,1.09

row,Structure (SMILES),z-score
1,Nc1ncc(-c2nnnn2-c2ccc(Cl)cc2)c(-c2ccc(Cl)cc2)n1,-0.0921
2,Cc1nc2c3ccccc3nc(NNC(=O)CCC(=O)NCCC(C)C)n2n1,-0.402
3,Cc1cc(-c2n[nH]c(=S)n2/N=C/c2sccc2C)n[nH]1,-0.362
4,O=C(CSCc1ccc(F)cc1)N1CCN(c2ccc(F)cc2)CC1,-0.0878
5,C/C(=N/NC(=O)c1cccs1)c1cccc(NC(=O)C2CC2)c1,-0.143
6,COc1ccc(CN(Cc2cc3cc(OC)c(OC)cc3[nH]c2=O)C(=O)NC2CCCCC2)cc1,-0.423
7,CCOCC(=O)N1CCc2ccccc21,-0.157
8,O=C(Nc1ccc(-c2nnco2)cc1)c1ccccc1,-0.324
9,COC(=O)/C(=N/Nc1ccccc1C)N1CCCc2ccccc21,-0.158
10,O=c1[nH]c(NC2CCCCC2)nnc1Cc1ccccc1,-0.656
11,COCC(=O)Nc1cc(OC)cc(OC)c1,-0.0538
12,Cc1cc(NC(=O)CSc2nnc(-c3cccnc3)n2N)no1,-0.404
13,CCC(C)NC(=S)N1CCN(C(c2ccccc2)c2ccccc2)CC1 (stereo not given),-0.112
14,Cc1ncsc1CCOC(=O)C12CC3CC(CC(C3)C1)C2,-0.15
15,CCOC(=O)c1c(NC(=O)CCC(=O)N2CCOCC2)sc2c1CC(C)(C)OC2,-0.0738
16,CN(c1cccc(Cl)c1)S(=O)(=O)c1cccc(C(=O)Nc2nc3ccccc3[nH]2)c1,-0.0848
17,COc1ccccc1N1CCN(S(=O)(=O)c2ccc3c4c(cccc24)C(=O)N3C)CC1,-0.292
18,CCn1nnc(NC(=O)c2cccnc2Cl)n1,-0.48
19,Cc1ccccc1-c1nsc(SCC(=O)Nc2ccc3c(c2)OCO3)n1,-0.254
20,C/C=C(\C)C(=O)OC1c2c(ccc3ccc(=O)oc23)OC(C)(C)C1OC(C)=O (stereo not given),-0.329
21,Nc1ccc(-c2nc3ccccc3[nH]2)cc1,1.29
22,Cc1nc(NC(=O)CSc2ccc(-c3nc4ccccc4[nH]3)cn2)sc1C,-0.0534
